Measurements as given in ChEMBL document CHEMBL4888484, “Replenishing the malaria drug discovery pipeline: Screening and hit evaluation of the MMV Hit Generation Library 1 (HGL1) against asexual blood stage Plasmodium falciparum ,using a nano luciferase reporter read-out” (2022).
In all, about 150,000 compounds went through this assay and about 540 (0.36%) showed an effect of 50% or more. This is one part of the list.

tested on: Plasmodium falciparum; assay: Primary screen in NF54 nanoGlo assay, in single point, at 2uM, 72h; a lower Z score goes with more inhibition; type: functional, Erythrocyte; settings: timepoint 72 hour

| Structure (SMILES) | % Inhibition [%] | Z score |
| --- | --- | --- |
| Cc1cccc(C(=O)Nc2ccccc2C(=O)OCc2c(C)noc2C)c1 | 6 | -0.82 |
| CN1CCN(c2ncnc(Oc3ccc(F)cc3F)c2N)CC1 | -4 | 0.41 |
| C=CCNCCOc1c(C)cc(C)cc1CC=C | -4 | 0.55 |
| CNC(=O)[C@H]1CCN(C(=O)c2cncc(Cl)c2)C1 | 0 | 0.01 |
| Cc1cc(C)cc(NC(=O)COc2cccc(-c3nc(C)no3)c2)c1 | -7 | 1.41 |
| CN1CCC(CNC(=O)c2ccncc2Cl)C1c1cccs1 (stereo not given) | 8 | -1.25 |
| CN(C)C(=O)c1cnc(NC[C@H]2CCCn3ccnc32)c(Cl)c1 | -3 | 0.42 |
| CCn1cc(CN2CC[C@@]3(CCCN(CC4CC4)C3=O)C2)cc1C#N | -26 | 2.3 |
| CCOc1cc2c3c(c1)-c1c(ssc1=S)C(C)(C)N3C(=O)C2=O | -1 | 0.18 |
| Cc1ccc(-c2nc(CN3CCC[C@H]3c3ccsc3)co2)c(C)c1 | -13 | 1.19 |
| O=S1(=O)CCN(c2ccc3ccc(Cl)c(Cl)c3n2)CC1 | -6 | 0.76 |
| COCC[C@]1(NS(=O)(=O)c2ccccc2)CCN(Cc2c(C)noc2C)C1 | -5 | 0.63 |
| O=C(Cn1c(=O)ncc2c1cnn2[C@H]1CCS(=O)(=O)C1)c1ccc(Cl)cc1Cl | -17 | 2.24 |
| CC1(S(=O)(=O)N2CCC[C@H](c3n[nH]c(C4CC4)n3)C2)CC1 | 1 | -0.12 |
| CC1CCCC1OCC(O)CN1CCCCC1 (stereo not given) | -15 | 1.72 |
| CC[C@@H](C(=O)N1CCN(c2ccc(F)cc2)CC1)N1CCN(Cc2ccc(F)cc2)C(=O)C1=O | -6 | 1.02 |
| O=C1CC[C@@]2(CCN(C(=O)C3(c4ccccc4)CCCC3)C2)N1 | -8 | 1.11 |
| CC(=O)N1CCN(C[C@H](O)COC2CCCCC2)CC1 | -16 | 2.14 |
| Cc1cc(N2CCN(c3ccccc3Cl)CC2)c2nncn2n1 | -5 | 0.53 |
| CCOC1CC(N(C)C(=O)c2ccc(NC(C)=O)cc2)C1(C)C (stereo not given) | -10 | 0.98 |
| Cc1ccc(-n2c(=O)n(CC(=O)NCCN3CCOCC3)c3cccnc32)cc1 | -3 | 0.33 |
| Cc1cc(CNC(=O)c2sc(-c3cccs3)nc2C)ncn1 | -10 | 2.02 |

| Structure (SMILES) | % Inhibition [%] | Z score |
| --- | --- | --- |
| CCc1nnc2nc(N3CCN(C(=O)Cc4cccs4)CC3)cc(C)n12 | -11 | 2.02 |
| O=C(c1cccnc1)N1CCO[C@H](c2ccccc2)C1 | 2 | -0.35 |
| CC[C@H](C)Oc1cccc(CN2CCC3(CC2)CN(C)CCN3C)c1 | -11 | 1.51 |
| Cc1nc(C)n(C2CN(S(=O)(=O)c3ccc4scnc4c3)C2)n1 | 0 | -0.06 |
| CNc1cc(C(=O)N(Cc2noc(C)n2)C(C)C)ccn1 | -22 | 2.23 |
| CCC(C)(C)C(=O)NC1CCN(C2=NS(=O)(=O)C(c3ccc(C(C)C)cc3)=C2C)CC1 | -22 | 4.39 |
| O=C(c1ncnc2ccsc12)N1CCCC[C@@]12CCOC2 | -9 | 1.23 |
| O=C([C@H]1CCS(=O)(=O)C1)N(Cc1ccoc1)C1CCCCC1 | -7 | 0.88 |
| Nc1c2c(-c3cccc(Cl)c3)nc(NCc3ccccc3)nc2nn1-c1ccccc1 | 3 | -0.39 |
| CN(C(=O)c1cc2ccccc2[nH]1)[C@@H]1CCC[C@H]1O | 2 | -0.18 |
| COc1ccc(-c2noc(CN3c4ccccc4CC[C@@H]3C)n2)cc1OC | -3 | 0.33 |
| CCCS(=O)(=O)c1c(S(=O)(=O)CCC)c2c3ccccc3ccn2c1C(=O)c1ccc(C)cc1 | -11 | 1.01 |
| CC(=O)Nc1ccc(-c2ccccc2-c2nnc(C)o2)cc1 | -8 | 0.9 |
| Cc1nc(NC2CCN(Cc3ccccc3)CC2)[nH]c(=O)c1C | -26 | 2.29 |
| COc1cc(OC)cc(C(=O)N/C(=N/c2ccc(C)cc2)NC[C@H]2CCCO2)c1 | 4 | -0.77 |
| CCn1ncc(-c2noc3nc(C4CC4)cc(C(=O)N[C@@H](C)CN4CCCCC4)c23)c1C | 5 | -0.77 |
| O=C(Cc1cccnc1)N1CCc2c(c(C(=O)N3CCC(O)CC3)nn2CCCc2ccccc2)C1 | -12 | 1.58 |
| O=C(O)[C@H]1CCN(C(=O)c2ccc(Oc3ccncc3)c(Cl)c2)C1 | -1 | 0.26 |
| Cc1ccc(S(=O)(=O)c2cn(CC(=O)Nc3cccc(C)c3C)c3nc(C)ccc3c2=O)cc1 | -14 | 1.4 |
| Nc1cc2c(cc1NC(=O)c1ccc3c(c1)CCNCC3)OCO2 | 18 | -2.5 |
| CCCNC(=O)CNC(=O)NC1CC1C1CCCCC1 (stereo not given) | 1 | -0.15 |
| Cc1nnc(CC(=O)N2CCCCC[C@H]2c2noc(C(C)C)n2)o1 | -4 | 0.55 |

| Structure (SMILES) | % Inhibition [%] | Z score |
| --- | --- | --- |
| CC(C)N1CCC(Nc2ccc(C3CC3)c(F)c2)CC1 | -15 | 1.92 |
| CCC1CN(C(=O)c2ccccc2OC2CC2)CC(CC)O1 (stereo not given) | 10 | -2.04 |
| Cc1cc(CN(C)C(=O)c2ncn(C(C)(C)C)n2)no1 | -15 | 2.9 |
| CN(CC(=O)Nc1sc2c(c1C(N)=O)CCCC2)Cc1cnn(C)c1 | -5 | 0.76 |
| CC(C)C(=O)N(Cc1cc(-c2ccccc2)on1)C1CC1 | -13 | 1.55 |
| COc1ccc(C(=O)N2CCC(n3cc(-c4nc(C)no4)nn3)CC2)c(OC)c1 | -2 | 0.24 |
| C[C@@H](COc1ccccc1)NC(=O)Cc1cccs1 | -9 | 1.31 |
| Cc1cc(CNC[C@H](C)c2c(C)noc2C)c2c(n1)CCCC2 | -1 | 0.2 |
| Cc1nc(NC(=O)C(C)(C)S(=O)(=O)C2CC2)cc(C2CC2)n1 | 14 | -1.64 |
| CC[C@H](C)NC(=O)c1cccc(C)c1C | -7 | 0.97 |
| CCOC(=O)N1CCC(n2cnc3ccncc3c2=O)CC1 | -14 | 2.06 |
| CC(C)(CN1CCCN(CC(=O)N2CCCC2)CC1)c1ccccc1 | -11 | 1.42 |
| COC(=O)c1c(C)nn(Cc2cccc3cccnc23)c1C | -12 | 1.08 |
| O=C(c1scnc1C(F)F)N1CCC[C@@H]2O[C@H](c3ccccc3)C[C@@H]21 | -9 | 1.28 |
| CCOC(=O)N1CCC([C@H](C)NC(=O)c2oc(CC3CC3)nc2C)CC1 | -7 | 1.03 |
| Cc1cc(-c2cccc(F)c2)nnc1NC[C@H]1CCCS(=O)(=O)C1 | -2 | 0.21 |
| CC(C)=CCC/C(C)=C/CNC(=O)CCn1ccc(=O)[nH]c1=O | 2 | -0.4 |
| COc1ccc([C@H](C(=O)O)N(C)Cc2ccnc3ccccc23)c(OC)c1 | -16 | 2.23 |
| CC1(NC(=O)NC2CCCc3ccc(F)cc32)CCOC1 (stereo not given) | -8 | 1.09 |
| COCCNC(=O)N[C@@H](C)Cc1ccco1 | -17 | 2.53 |
| Cc1cccc([C@H]2C(=O)NCCN2C(=O)Cn2nc(C)cc2C)c1 | -13 | 2.49 |
| CCc1c(C)nc(N(CC)CC)c(C#N)c1C#N | -1 | 0.1 |

| Structure (SMILES) | % Inhibition [%] | Z score |
| --- | --- | --- |
| COCCn1nc(C)c(CNC[C@H]2CCC=CO2)c1C | -12 | 1.31 |
| CC(=O)c1cccc(-n2c(=O)c3ccccc3n(CC(=O)NCCN3CCCC3)c2=O)c1 | -16 | 1.67 |
| COc1ccc(NC(=O)Cn2c(C)ccc2C)cc1-c1nnc(C)o1 | -9 | 1.74 |
| O=C(Cc1csc(-c2cccnc2)n1)NCc1ccncc1 | 1 | -0.13 |
| CC(=O)/C(=N\Nc1ccc(Cl)c(C(N)=O)c1)Nc1ccc(C)cc1C | -7 | 0.84 |
| O=C(CNc1cc(C(F)(F)F)cc(C(F)(F)F)c1)NCc1ccc2c(c1)OCO2 | -10 | 1.26 |
| CCc1cc2c(N3CCN(c4ccnnc4)CC3)nc(C)nc2s1 | -2 | 0.45 |
| CCC(=O)N1CCc2nc(-c3ccncc3)nc(N3CCCC3)c2CC1 | -27 | 4.61 |
| O=C(Nc1cc(C2CCCCC2)[nH]n1)c1cncnc1C1CC1 | -3 | 0.69 |
| CC(C)[C@H](Oc1ccccc1)C(=O)N1CC2(CNC(=O)N2)C1 | -10 | 1.67 |
| Cc1cccc(C(=O)N2[C@H](C(=O)N3CCOCC3)COC23CCN(C(=O)c2cccc(F)c2)CC3)c1 | 0 | 0.01 |
| CCONC(=O)NC1CCCCC1O (stereo not given) | -2 | 0.19 |
| COc1cccc(-n2ccnc2-c2ccc(C#CCO)cc2)c1 | 2 | -0.34 |
| O=C(NCc1ccc(OC2CCCC2)nc1)c1ccc(OCC2CC2)cc1 | -9 | 0.92 |
| CN(Cc1ccc(Br)o1)C(=O)C(C)(C)C | -9 | 1.67 |
| O=C(NCc1cc2n(n1)CCN(c1ncc(F)cn1)C2)C1CCC1 | -13 | 1.63 |
| COc1cccc(CN2CC3(CCN(C(=O)Cc4cc(C)no4)CC3)CC2=O)c1 | -12 | 1.67 |
| Cn1c(C(C)(C)NC(=O)CN2CCOCC2)nc2ccccc21 | -5 | 0.96 |
| Cc1cc(C(=O)NCCCn2cccn2)nc(N2CCOCC2)n1 | 31 | -0.55 |
